In all, about 340,000 compounds went through this assay and about 12,000 (3.5%) were called active. The shares of active, inactive and inconclusive entries below differ from those in the screen. The call rests on the fitted dose curve; in most records, active means well fitted inhibition curve with a large enough effect; inconclusive means small, poorly fitted or top-dose-only effect, or another doubt; inactive means no such curve, though single readings can be large or run the other way. No potency is given beside an inconclusive call; the fits are too rough.
Assay: qHTS Assay for Inhibitors of Hepatitis C Virus (HCV)
Conditions: Huh7.5.1 HCVcc-Cre (HCVcc is cell-culture hepatitis C virus) infection, luciferase reporter, 44 h; activity change, negative = inhibition: at 41.8 µM (top of the series) unless noted
How it was run: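 After 44 h co-culture of compound, cells and HCVcc-Cre (~0.5 moi), substrate is added for 15 min at room temperature and luciferase measured over 15 sec. Cells were seeded at 1,000/well and pre-cultured 4 h.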
On the % scale 0 is the no-effect control and ±100 the full control effect; potency means the concentration at half of the fitted maximal effect; tags describe the fitted curve by direction and shape.

SMILES	Potency	activity change, negative = inhibition
COc1ccc(-n2c(COc3cccc(C)c3)nnc2SCC(=O)NCc2ccco2)cc1	inactive	
CCCCCOc1ccc(CSCCNC(=S)Nc2ccccc2)cc1	inconclusive [inhibitor, partial curve]	
CCCCCCn1c(CN2CCN(C(=O)c3ccco3)CC2)nc2c1c(=O)n(C)c(=O)n2C		inactive: 6.46%
CCOc1ccc(NC(=O)COc2ccccc2)c([N+](=O)[O-])c1		inactive: -18.5%
Cc1oc(-c2ccc(Cl)cc2)nc1CN1CCCC(C(=O)NCc2cccnc2)C1 (centres undefined)	active: 1 µM	
CCCc1cc(=O)[nH]c(SCC(=O)C(C)(C)C)n1	inconclusive [inhibitor, full curve]	
CCOc1ccc(CCNC(=O)c2ccc(=O)[nH]c2)cc1OCC		inactive: 3.66%
COc1ccccc1N1CCN(CCc2c[nH]c3cc4c(cc23)OCO4)CC1	inconclusive [inhibitor, partial curve]	
CC(=O)[C@@H]1[C@@H](C(=O)c2ccc(C)cc2)[C@]2(C(=O)Nc3ccccc32)[C@H]2C=Cc3cc(F)ccc3N12	inconclusive [inhibitor, single point]	
Cc1ccccc1OCC(O)CN1CCN(CC(O)COc2ccccc2C)C(C)C1 (centres undefined)		inactive: -15.9%
CCOC(=O)c1cc(-c2ccco2)nc2c1c(C)nn2CCC#N	inconclusive [inhibitor, partial curve]	
COc1cc(NC(=S)NCCc2ccccc2)c(OC)cc1NC(=O)CC(C)C	inconclusive [inhibitor, partial curve]	
CSc1c(CC(=O)Nc2ccccc2)n(C)c2ccccc12	inconclusive [inhibitor, single point]	
O=C(Nc1ccc(OC(F)F)cc1)c1cc(S(=O)(=O)N2CCCCC2)ccc1N1CCOCC1		inactive: -9.96%
COc1ccc(CCNC(=O)c2[nH]c(C)c(C(C)=O)c2C)cc1	inconclusive [inhibitor, single point]	
O=[N+]([O-])c1ccc(OCc2cnc(Cl)s2)c([N+](=O)[O-])c1		inactive: -20.3%
O=C1/C(=C\c2ccc(Cl)cc2)CCC1CNc1ccc(Cl)cc1 (centres undefined)	inconclusive [inhibitor, single point]	
O=C(c1ccco1)N1CCN(C(=O)C2CCCc3c2[nH]c2ccc(Cl)cc32)CC1 (centres undefined)	inconclusive [inhibitor, partial curve]	
Cc1ccn2c(=O)nc(SCC(=O)Nc3ccc4c(c3)OCO4)nc2c1	inconclusive [inhibitor, single point]	
CC(C)CN1C(=O)NC(NC(=O)c2cccs2)(C(F)(F)F)C1=O (centres undefined)		inactive: 15.7%
CCCOC(=O)C(C)n1cnc2scc(-c3ccc(C)cc3)c2c1=O (centres undefined)	active: 22.4 µM	
COc1ccc(C(=O)NC(=S)N2CCNC(=O)C2)cc1Br		inactive: 8%

SMILES	Potency	activity change, negative = inhibition
COC(=O)c1cc(S(=O)(=O)NCC2CCN(CCc3ccc(OC)cc3)CC2)cn1C	inconclusive [inhibitor, partial curve, poor fit]	
Cc1ccc(S(=O)(=O)N2CCCCC2)cc1NC(=O)c1ccc(Cl)nc1	inconclusive [inhibitor, single point]	
CC(=O)N1CCCc2cc(S(=O)(=O)N3CCCC(C(=O)Nc4cccc(C)c4)C3)ccc21 (centres undefined)	inconclusive [inhibitor, single point]	
COc1cc(/C=C2\COC/C(=C\c3cc(OC)c(OC)c(OC)c3)C2=O)cc(OC)c1OC	active: 1 µM	
Cc1ccc(NC(=O)c2nc3nccc(C)n3n2)cc1S(=O)(=O)N1CCCCC1	inconclusive [inhibitor, single point]	
COc1ccc(-n2cc(-c3ccccc3)nc2SC)cc1	inconclusive [inhibitor, single point]	
COc1ccc(C(=O)c2cc3c(cc2[N+](=O)[O-])OCCO3)cc1	inconclusive [inhibitor, single point]	
Cc1nc2ccccc2c2oc(C(=O)NCc3ccc4c(c3)OCO4)cc12	active: 8.91 µM	
CCC(=O)c1ccc(OC(=O)N2CCOCC2)cc1		inactive: -3.04%
CCOC(=O)c1c(-c2ccccc2)oc2ccc(OC(=O)N(C)C)cc12	active: 10 µM	
CCC1=C(OC(=O)N(CC)CC)N2C(=O)OC(=NCCOC)[C@]2(Cc2ccccc2)[C@H]2C1=CC[C@H]1C(=O)N(C)C(=O)[C@H]12		inactive: 10.6%
CCOc1cc(C(=O)N/N=C\c2cn(CC)nc2C)cc(OCC)c1OCC	inconclusive [inhibitor, full curve]	
CCn1c2ccccc2c2nc3cc(C(=O)O)ccc3nc21	inconclusive [inhibitor, single point]	
CC1CCCc2sc3ncn(N)c(=N)c3c21 (centres undefined)	inconclusive [inhibitor, full curve, poor fit]	
CCc1ccc(S(=O)(=O)Nc2cc3c(cc2C)n(C)c(=O)n3C)cc1	inconclusive [inhibitor, single point]	
Cc1ccc(C)c(C(=O)COC(=O)c2ccc(C)c(S(=O)(=O)N3CCOCC3)c2)c1	inconclusive [inhibitor, single point]	
COc1ccc(C)cc1NC(=O)CN(C)S(=O)(=O)c1ccc2c(c1)CC(C)N2C(C)=O (centres undefined)	inconclusive [inhibitor, single point]	
O=C(COC(=O)c1cc([N+](=O)[O-])ccc1NCCO)Nc1cccnc1Cl	inconclusive [inhibitor, single point]	
CCOC(=O)/C(C(C)=O)=C1\OC(=O)c2ccccc21		inactive: 17.1%
CCCN(CC(=O)Nc1ccccc1Br)CC(=O)Nc1ccc(F)c(F)c1F	inconclusive [inhibitor, single point]	
CC(C)(C)c1cc(CNC2CS(=O)(=O)C[C@@H]2O)cc(C(C)(C)C)c1O (some centres undefined)	inconclusive [inhibitor, single point]	
COc1cc(NC(=S)N2CCN(c3ccccn3)CC2)c(OC)cc1Cl	inconclusive [inhibitor, single point]	

— PubChem BioAssay AID651820 (National Center for Advancing Translational Sciences (NCATS), 2012)
